# Source: the supplement of paper PMC10126150
# Values marked as one replicate rest on one cluster of the flow cell; about a third of the high ones do not repeat.
# Tested on: ATP
# Test: switch fluorescence ratio, 500 uM ATP over buffer (Cy3 cluster intensity, sum of 5 cycles each) (fold (ratio)); higher = stronger signal-on switching upon ATP binding; sequences stand for … in TCGTCGGCAGCGTCAGATGTGTATAAGAGACAGTTTTTTTTTTTTTTTTTTTTTTTTT…TC
# Settings: aptamer strand: ATP DNA aptamer (quencher-CACCTGGGGGAGTATTGCGGAGGAAGG + anchor), 100 nM annealed; ATP concentration: 500 uM; one replicate
# Summary of the method: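 After annealing to 100 nM quencher-labelled ATP aptamer, Cy3-labelled switching-strand clusters on a modified Illumina MiSeq flow-cell were imaged in selection buffer. A second image followed after 15 min with 500 uM ATP at 22 °C, and five such buffer/ATP cycles were done, each separated by NaOH stripping and re-annealing. The fluorescence ratio, averaged per switch-domain sequence, is summed target-cycle over summed buffer-cycle Cy3 intensity per cluster, with clusters outside 100-1000 RFU excluded.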
# 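Also: ATP exposure 15 min at 22 °C before imaging.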
row,Sequence,switch fluorescence ratio
1,CGCTAGATTA,1.01
2,CGCTCCCATC,1.74
3,CGCTCGGGGA,1.03
4,CGCTCGGGTA,0.983
5,CGCTCTTCGG,1.01
6,CGCTGATCTG,1.03
7,CGCTGATGTG,0.975
8,CGCTGGCAAA,1.15
9,CGCTGGCGGT,0.966
10,CGCTGGTCAG,0.956
11,CGCTTAATCG,0.967
12,CGCTTCC,2.15
13,CGCTTGTTG,1.03
14,CGCTTTTTAT,0.996
15,CGCTTTTTCA,1.01
16,CGGAAATTAC,1.24
17,CGGAACGTGT,0.986
18,CGGAAGCCTT,1.01
19,CGGAAGGTTA,0.971
20,CGGAATCTA,1.01
21,CGGAATCTTA,1.02
22,CGGAATTGTG,0.959
23,CGGACAATCT,1.14
24,CGGACAGAGA,1.02
25,CGGACCGTAT,0.968
26,CGGACCTTTT,0.979

row,Sequence,switch fluorescence ratio
1,CGGACGCGGG,1.07
2,CGGACGGCGT,0.948
3,CGGAGAATGC,1.82
4,CGGAGACAGT,1.07
5,CGGAGAGGGG,0.983
6,CGGAGAGGTA,1.02
7,CGGAGAGTGC,1.12
8,CGGAGATCTA,0.998
9,CGGAGCGCAG,1.09
10,CGGAGGCCGA,0.922
11,CGGAGGCGAT,1.29
12,CGGAGGCTCT,1.07
13,CGGAGTATCT,1.07
14,CGGAGTCCTC,1.04
15,CGGAGTGCAT,1.05
16,CGGAGTGGAT,1.11
17,CGGAGTGGTC,1.11
18,CGGAGTTCTC,1.02
19,CGGATAATTC,1.06
20,CGGATACTCG,1.15
21,CGGATAGATG,1.04
22,CGGATAGGTA,0.982
23,CGGATCAAAT,1
24,CGGATCAGAC,1.09
25,CGGATCATTG,0.977
26,CGGATCCGCC,1.07

row,Sequence,switch fluorescence ratio
1,CGGATCGCTT,1.13
2,CGGATCTCTA,1.03
3,CGGATGAACC,1.03
4,CGGATGTAAG,0.987
5,CGGATGTCAA,0.993
6,CGGATGTCGC,0.941
7,CGGATTAAAG,1.01
8,CGGATTAGAC,1.04
9,CGGATTCATT,1
10,CGGATTGGCA,0.921
11,CGGCAATGCG,0.985
12,CGGCACACTT,0.973
13,CGGCACGTTC,1.03
14,CGGCACTTCT,1.06
15,CGGCAGGTTG,1.01
16,CGGCCAGACA,1.01
17,CGGCCATGTC,0.98
18,CGGCCCAGAG,1.16
19,CGGCCCATAT,1.05
20,CGGCCCGTAC,1.28
21,CGGCCGGTCG,1.04
22,CGGCCGTATC,1.12
23,CGGCCTAAGT,1.02
24,CGGCCTCATC,1.05
25,CGGCGAAGAA,1.02
26,CGGCGAGGTA,0.98

row,Sequence,switch fluorescence ratio
1,CGGCGAGTAG,1.02
2,CGGCGCGGCT,0.998
3,CGGCGGGACT,1.05
4,CGGCGGGATG,1.01
5,CGGCGGGGTA,0.998
6,CGGCGGTG,1
7,CGGCGGTGCC,0.948
8,CGGCTAACTG,0.993
9,CGGCTAATGG,0.989
10,CGGCTATAAT,1.07
11,CGGCTGAGCG,0.907
12,CGGGAAACCG,0.978
13,CGGGAAAGG,1
14,CGGGAAAGTA,0.988
15,CGGGAACAGC,0.986
16,CGGGACGGTG,1.03
17,CGGGACGTCA,1.04
18,CGGGACGTTG,0.978
19,CGGGAGATGA,1
20,CGGGAGGATC,1.04
21,CGGGATGAAT,1.55
22,CGGGATGTGG,1.05
23,CGGGATTCG,0.964
24,CGGGATTTCA,1
25,CGGGCAATTG,1.22
26,CGGGCATCTG,1.04

row,Sequence,switch fluorescence ratio
1,CGGGCCCTTG,1
2,CGGGCCGGAT,0.973
3,CGGGCCGTGG,1.01
4,CGGGCCTGA,1.06
5,CGGGCTATAT,1.29
6,CGGGCTCAAT,1.03
7,CGGGCTCTAT,0.993
8,CGGGCTTGCC,1.04
9,CGGGGCCCTA,1.03
10,CGGGGGACAA,1.04
11,CGGGGGGGT,0.995
12,CGGGGTAGC,0.961
13,CGGGGTATGA,0.969
14,CGGGGTCGCT,0.926
15,CGGGGTTAT,1.04
16,CGGGTACCTT,0.998
17,CGGGTACGAC,1.05
18,CGGGTACGCG,0.928
19,CGGGTACGTA,0.96
20,CGGGTAGCGC,0.998
21,CGGGTATTGA,1
22,CGGGTCAGGG,1
23,CGGGTCTAGA,1.04
24,CGGGTCTTTC,0.99
25,CGGGTGATCA,1.03
26,CGGGTGCGTT,0.959

row,Sequence,switch fluorescence ratio
1,CGGGTTACCA,0.993
2,CGGGTTCAAT,0.99
3,CGGGTTCGGT,1
4,CGGGTTGTTG,0.964
5,CGGTAAACCA,0.99
6,CGGTAAATTT,0.99
7,CGGTACATCC,1.06
8,CGGTACCAGC,1.05
9,CGGTACTATG,1
10,CGGTACTGG,1.03
11,CGGTAGCGAC,1.69
12,CGGTATATGC,1.12
13,CGGTATCGGG,0.994
14,CGGTATTAAT,1.03
15,CGGTATTGC,1.06
16,CGGTCATTTA,1.03
17,CGGTCCATC,1.04
18,CGGTCCCGCA,0.99
19,CGGTCCCGGT,1.09
20,CGGTCGACAG,1.01
21,CGGTCGAGGC,0.962
22,CGGTCTAAGC,1.03
23,CGGTGCCTCG,1.01
